This passage reports viscosity results from the CheMixHub viscosity set.

The structures appear in SMILES notation. ± gives the uncertainty stated by the source. The source holds more than one record for some entries. Only these are listed. An entry can have further records. Values that stand side by side are repeats in other runs, samples, wells, individuals or studies. Marks in square brackets tell the records apart. Letters hold for one entry only.

On to `CCCCN`, for which the viscosity reads like this: (303.15 K, 101 kPa) 0.4434 ± 0.0058 mPa·s [study A] and 0.443 ± 0.0054 mPa·s [study B] and 0.443 ± 0.005 mPa·s [study C] and 0.443 ± 0.009 mPa·s [study D] and 0.4378 ± 0.0054 mPa·s [study E] and 0.4493 ± 0.004 mPa·s [study F] and 0.5721 ± 0.007 mPa·s [study G]; (303.15 K, 101.33 kPa) 0.501 ± 0.014 mPa·s [study A] and 0.501 ± 0.013 mPa·s [study B] and 0.4378 ± 0.0054 mPa·s [study C] and 0.464 ± 0.005 mPa·s [study D] and 0.4379 ± 0.004 mPa·s [study E]; (308.15 K, 101 kPa) 0.4249 ± 0.044 mPa·s [study A] and 0.4249 ± 0.0058 mPa·s [study B] and 0.417 ± 0.0054 mPa·s [study C] and 0.421 ± 0.002 mPa·s [study D] and 0.3817 ± 0.01 mPa·s [study E].
